According to the supplement of paper PMC11417369:
± gives the standard deviation of the averaged measurements. The list shows a part of the results.

test system: PfAP2-LT AP2 domain (GST-tagged); assay: gcPBM binding intensity (ln(normalized median fluorescence intensity)); higher = stronger DNA binding
Method in brief: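 GST-fused DNA-binding domains of P. falciparum, expressed in E. coli, were applied at about 25 μg on average for 1 h to an Agilent 4 × 180k array of primer-extended double-stranded 36-bp intergenic genomic probes and negative controls. Binding intensity is the highest Masliner-normalised natural-log median intensity across replicate spots of either probe orientation, measured with Alexa488 anti-GST antibody and a 488 nm scan.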

| Sequence | gcPBM binding intensity (ln) |
| --- | --- |
| ATTTTTTTTTTTATAGTGGATCCACATTTGCCATTT [CACACA_negctrl_site1106] | 8.87 ± 0.52 |
| TATAAAAAAATATTATAATATATATATATATATATA [XGTACX_negctrl_site41] | 8.99 ± 0.014 |
| AATATTTATATTTACACACACATAATACATCTATGT [CACACA_site4187] | 9.44 ± 0.26 |
| AAAAAAGAACGCATAGTGCATATCTAAAAGATTTTT | 8.94 ± 0.36 |
| GATAAATTAAGACACACACACATATATTTATTTATA [CACACA_site7789] | 9.64 ± 0.23 |
| TAGTATTAGATATATACACACATATATACCTATAGA [CACACA_site7083] | 8.97 ± 0.31 |
| TATATATATATATATACACACATATATACCTATATA [CACACA_site6085] | 9.85 ± 0.18 |
| CATGTTCATCAGAACGCACACATAATGGTTTACTTA [CACACA_site898] | 9.03 ± 0.38 |
| AAGAAAAAAAAAATTACACACTGCGCACATACACAA [CACACA_site6721] | 9.08 ± 0.35 |
| ACTTATATAAAACATTAACACACAAAGAAAAAAAAT [CACACA_site8529] | 9.11 ± 0.47 |
| GATACACCAAATAACTGTACGCACGTGTAATATTAA [XGTACX_site3441] | 9.08 ± 0.48 |
| AGTAACTAATTAAATGCATGTCGATATATATTATAT [TGCATGCA_site1038] | 8.92 ± 0.4 |
| GTGTATATGTATATATGTACATAAATTTTTTTTTTT [XGTACX_site7083] | 8.69 ± 0.35 |
| CCTAGAAAAGTATATACACACGCGCAAAATAAAATT [CACACA_site1413] | 9.35 ± 0.26 |
| TTAACCGGTTTATGGGTGCACATTCTTCTTAAATAA [GTGCAC_site9928] | 8.56 ± 0.46 |
| AAAAAAAAGTTAAGCACACACATGAATAAATAATAC [CACACA_site840] | 9.34 ± 0.46 |
| TATAAAAAAAACAAAAAAAAAAAAAAACAAAAAAAA [TGCATGCA_negctrl_site514] | 8.44 ± 0.45 |
| TTTTTTTGTTGTTGTTGTACGATATTTTCCTTATCA [XGTACX_site2375] | 9.07 ± 0.52 |
| TGTATAAAAGTTTATACACACATTTGATATATTTCA [CACACA_site6606] | 8.81 ± 0.37 |

| Sequence | gcPBM binding intensity (ln) |
| --- | --- |
| TTTTATTTTTATTATACACACGCTTAATAAATGCAT [CACACA_site1751] | 8.97 ± 0.42 |
| GGGAATATAAGTACACGATAATATGTGATAAGGTCT [CACACA_negctrl_site1502] | 9.31 ± 0.46 |
| GGGGGGATGAGATATTGTACTTTTTAGGAAAGTGTA [XGTACX_site2835] | 9.39 ± 0.37 |
| AAAGATAAAATATTATGTACATATATATATATATAT [XGTACX_site5079] | 9.29 ± 0.27 |
| CATTTAACATAAATTAAACACACAATATAATACATT [CACACA_site8333] | 8.85 ± 0.42 |
| AATAATAATACTAATCGTACGCATATTTTTCAAACC [XGTACX_site8055] | 8.94 ± 0.26 |
| ATTAAATACATTAACACACACACAAATATATACATA [CACACA_site2881] | 9.68 ± 0.16 |
| AAAAAAATATATATATATATATATATATATATATAT [TGCATGCA_negctrl_site7] | 9.605 ± 0.064 |
| AAATATAATAATATATGTACATATATATATATATAT [XGTACX_site6980] | 9.31 ± 0.31 |
| TATACATATTATATATGTACACATATTATATGTATA [XGTACX_site5851] | 8.75 ± 0.34 |
| TATGTATTAAATTTTACACACATGATTCTCTATATG [CACACA_site8720] | 9.09 ± 0.45 |
| TCAACAAATAAACTTTGTACATATATACAAAATATA [XGTACX_site4447] | 8.54 ± 0.47 |
| AATTTAAAAGCTTGTGGTACTTTTGCTCTTCCTTTG [XGTACX_site3148] | 8.85 ± 0.66 |
| ATACAAAAAAGAAGGACACACAGAAGTAACATGTTA [CACACA_site3074] | 9.27 ± 0.54 |
| TAACATGATATATAATGTACATATAAGATATTTATA [XGTACX_site4383] | 8.79 ± 0.45 |
| TTTAAAAAAAAAAAAAAAAATTAAATGAATTATTAA [CACACA_negctrl_site1121] | 7.81 ± 0.64 |
| ATGAATTATATATTATGTACATATAATTAAAATATA [XGTACX_site7140] | 8.52 ± 0.5 |
| CGTGGGAGCGGACACACACACACACCCATATATATA [CACACA_site4340] | 9.86 ± 0.41 |
| TTAAAAGATATTACATGTACATATTCAATATATGTA [XGTACX_site5895] | 8.62 ± 0.41 |

| Sequence | gcPBM binding intensity (ln) |
| --- | --- |
| ACAAATAAATAAAAATGTACAAATGAATACATCTTA [XGTACX_site3780] | 8.77 ± 0.54 |
| TTTTTTTAAAAAAACAAAAAAAAAAAAAATATAAAA [TGCATGCA_negctrl_site511] | 8.14 ± 0.48 |
| TACATCGGTATATAAACACACAACAAAAATGCTTAC [CACACA_site5983] | 9.14 ± 0.42 |
| AAAATAATTAAAAAAAGTACTCGTAATATAAATATA [XGTACX_site4967] | 9.1 ± 0.38 |
| AATAATGTATAATGATGTACAAAAAAGGAAGACATA [XGTACX_site2474] | 9.22 ± 0.33 |
| ATATTTTGTAATATTTGTACATATATTATACATATA [XGTACX_site963] | 8.84 ± 0.39 |
| TTTTTTTTGCGTACAGTGCAAATTTATTTACTATTC | 8.82 ± 0.54 |
| TATGAAAATTAAGTTTGTACACAAGTGGAAAAAAAA [XGTACX_site6129] | 8.69 ± 0.51 |
| TACATTTATAATAATACACACATAAATTTACATTTT [CACACA_site3463] | 8.86 ± 0.45 |
| AAATTAAATAAATTTACACACTAAAAGTTACCTATA [CACACA_site6623] | 8.62 ± 0.4 |
| TTTGTTATTTATTAGTGTACAAAAAAGCATTTCAAA [XGTACX_site8729] | 8.37 ± 0.42 |
| AAAAAAAAAAAAAAAAAAAAAAAAAAAAAAAAAAAT [CACACA_negctrl_site882] | 8.88 ± 0.28 |
| TATTCTATAAATATATTTTTTTAATTTTTTATTTTA [CACACA_negctrl_site307] | 8.15 ± 0.57 |
| AGGTGTATCATAAAATGTACATACATACATACATAA [XGTACX_site4479] | 8.95 ± 0.47 |
| TTGTAATTCATTCAAATATAAAATAAATAAATATGA [CACACA_negctrl_site349] | 8.29 ± 0.4 |
| AAAATGTGCTTTTCAGTGCAATTTTTTTTGTAATAA [GTGCAC_site9566] | 8.34 ± 0.35 |
| TATTATTATTTTTTATGTACTAACGACAAAAATATT [XGTACX_site252] | 8.48 ± 0.4 |
| TATGTAAAAAGAGAAAAAAAAAAGAACGATAATTTC [CACACA_negctrl_site946] | 8.49 ± 0.54 |
